Reference: ChEMBL document CHEMBL3124763

Tests used:
[1] = test system: Vero; experiment: Inhibition of furin in African green monkey Vero cells assessed as protection against Stx-induced toxicity at 2 to 20 uM incubated for 4 hrs prior to Stx challenge measured after 24 hrs by LDH assay; conditions: Chlorocebus sabaeus
[2] = target: Furin (Homo sapiens) (UniProt P09958); experiment: Inhibition of furin (unknown origin) assessed as HA5-mediated membrane fusion at 12.5 to 50 uM after 36 hrs by cell-based luciferase reporter gene assay
[3] = target: Furin (Homo sapiens) (UniProt P09958); experiment: Inhibition of furin (unknown origin) assessed as HA5-mediated membrane fusion at 100 uM after 36 hrs by cell-based luciferase reporter gene assay

Chain of UniProt P09958 (P09958 whole entry, the tested form may be a part): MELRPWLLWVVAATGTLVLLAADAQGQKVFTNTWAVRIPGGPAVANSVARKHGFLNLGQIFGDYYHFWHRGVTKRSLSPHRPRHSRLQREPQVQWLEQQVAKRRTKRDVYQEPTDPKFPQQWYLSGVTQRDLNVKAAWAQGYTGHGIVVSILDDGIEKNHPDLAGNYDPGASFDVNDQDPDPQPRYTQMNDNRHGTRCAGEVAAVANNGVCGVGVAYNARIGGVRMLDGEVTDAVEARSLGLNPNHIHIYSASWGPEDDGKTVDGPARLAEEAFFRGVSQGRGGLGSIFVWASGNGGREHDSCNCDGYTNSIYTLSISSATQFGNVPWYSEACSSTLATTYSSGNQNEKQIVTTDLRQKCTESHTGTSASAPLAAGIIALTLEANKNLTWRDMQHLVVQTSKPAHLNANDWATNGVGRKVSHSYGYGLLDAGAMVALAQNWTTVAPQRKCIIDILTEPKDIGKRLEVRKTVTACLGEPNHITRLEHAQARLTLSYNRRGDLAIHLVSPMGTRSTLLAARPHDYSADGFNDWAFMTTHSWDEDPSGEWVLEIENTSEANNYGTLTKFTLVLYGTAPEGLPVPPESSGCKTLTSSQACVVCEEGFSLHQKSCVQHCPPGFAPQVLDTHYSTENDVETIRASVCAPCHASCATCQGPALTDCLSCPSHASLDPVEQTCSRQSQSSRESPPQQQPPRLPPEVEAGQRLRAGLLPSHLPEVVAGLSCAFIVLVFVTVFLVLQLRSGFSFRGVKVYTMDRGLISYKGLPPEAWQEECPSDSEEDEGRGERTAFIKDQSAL

**Q.** Which results are given for `CCCCCCCCCC(=O)N[C@@H](CCCNC(=N)N)C(=O)N[C@H](C(=O)N[C@@H](CCCCN)C(=O)N[C@@H](CCCNC(=N)N)C(=O)CCl)C(C)C` (Decanoyl-RVKR-CH2Cl)?
**A.** inhibition [1]: Active; inhibition [2]: Active; inhibition [3]: 50%

Calls of active or inactive are those of the source. The calls are words filed in the database; no cut-off is given here. Where a SMILES comes first, the peptide text is derived from it. The star is where a group is joined. Decanoyl = CCCCCCCCCC(=O)*; CH2Cl = ClC*
